SMILES strings stand for the structures. Further values from the same series stand in other lists.

Data on four compounds can be found in patent publication US8389512B2 (priority 2008, dated 2013).

This data set can be described thus: 24 hr in-vivo study: meloxicam plasma concentration and pharmacokinetics after oral (gavage) administration to male rats. The settings on record: 1 mg/kg oral. From the text:
Male Sprague-Dawley rats, 250-300 g, received with a surgically implanted jugular catheter in place from (Harlan or Taconic Laboratories, USA). Animals were housed one per polycarbonate cage utilizing individual cage cards, with free access to food and water in accordance with NIH guidelines. Animals were quarantined at least 24 hrs after arrival prior to use and patency of the implanted catheter determined on the day of the test. Environmental controls for the animal room were set to maintain 18 to 26° C., a relative humidity of 30 to 70%, a minimum of 10 air changes/hour, and a 12-hour light/12-hour dark cycle. Rats historically have been used in safety evaluation and PK screening studies and are recommended by appropriate regulatory agencies. […] Each rat was weighed and the dose volume adjusted accordingly so that the effect of weight variability on results of study was eliminated and that each rat received 1 mg/kg dose.
Pharmacokinetic parameters were calculated from individual animal samples using appropriate software (PK Solutions 2.0, Summit Research Services, Montrose, Calif., USA).

For `Cc1cnc(NC(=O)C2=C(O)c3ccccc3S(=O)(=O)N2C)s1.O=C(O)c1ccc2ccccc2c1O` [Cocrystal 76, Meloxicam: 1-Hydroxy-2-Naphthoic Acid Cocrystal (1:1)], the meloxicam plasma concentration reads like this: (N = 5, 0.0833 hour) 0.34 µg/mL; (N = 5, 0.75 hour) 2.74 µg/mL; (N = 5, 1 hour) 3.04 µg/mL; (N = 5, 2 hour) 3.94 µg/mL; (N = 5, 8 hour) 3.33 µg/mL; (N = 5, 12 hour) 2.55 µg/mL. The compound also gave a meloxicam plasma concentration (N = 5, 24 hour) of 1.48 µg/mL.
As for `Cc1cnc(NC(=O)C2=C(O)c3ccccc3S(=O)(=O)N2C)s1.O=C(O)c1ccccc1O` [Cocrystal 88, Meloxicam:Salicylic Acid Cocrystal Form III (1:1)], the meloxicam plasma concentration worked out at 0.145 µg/mL (N = 5, 0.0833 hour); 1.0625 µg/mL (N = 5, 0.75 hour); 1.2825 µg/mL (N = 5, 1 hour); 2.06 µg/mL (N = 5, 2 hour); 1.7 µg/mL (N = 5, 8 hour); 1.1425 µg/mL (N = 5, 12 hour). Where the note is “N = 5, 24 hour”, this compound came in with a meloxicam plasma concentration of 0.5 µg/mL.
Consider `Cc1cnc(NC(=O)C2=C(O)c3ccccc3S(=O)(=O)N2C)s1.O=C(O)/C=C\C(=O)O` [Cocrystal 21, Meloxicam:Maleic Acid Cocrystal (1:1)], for which the meloxicam plasma concentration turned out to be 0.3 µg/mL (N = 5, 0.0833 hour); 0.78 µg/mL (N = 5, 0.75 hour); 0.86 µg/mL (N = 5, 1 hour); 1.31 µg/mL (N = 5, 2 hour); 1.34 µg/mL (N = 5, 8 hour); 1.11 µg/mL (N = 5, 12 hour). This compound had a meloxicam plasma concentration (N = 5, 24 hour) of 0.7 µg/mL.
On to `Cc1cnc(NC(=O)C2=C(O)c3ccccc3S(=O)(=O)N2C)s1.Cc1cnc(NC(=O)C2=C(O)c3ccccc3S(=O)(=O)N2C)s1.O=C(O)CCC(=O)O` [Cocrystal 144, Meloxicam:Succinic Acid Cocrystal (2:1)], for which the meloxicam plasma concentration by setting is: (N = 5, 0.0833 hour) 0.03 µg/mL; (N = 5, 0.5 hour) 0.45 µg/mL; (N = 5, 0.75 hour) 0.6 µg/mL; (N = 5, 1 hour) 0.96 µg/mL; (N = 5, 2 hour) 1.5 µg/mL; (N = 5, 8 hour) 1.6 µg/mL. Moreover, the meloxicam plasma concentration reads like this: (N = 5, 12 hour) 1.26 µg/mL; (N = 5, 24 hour) 0.58 µg/mL.
